About 6,900 (2%) of roughly 340,000 compounds were called active. No stated cut-off is given here; in the data, active means inhibition above about 30%; inactive means below that, where a call was filed. The entries are a selection whose mix differs from that of the whole data set. Where no call is shown, the source filed none.
The compounds below were run against D(2) dopamine receptor (Homo sapiens) (UniProt P14416) (assay: HTS Assay for Allosteric Antagonists of the Human D2 Dopamine Receptor: Primary Screen for Antagonists). Conditions: HEK293 TREx D2 cells, calcium flux, dopamine EC80; at 10 µM; stronger effect = higher value.
Chain of UniProt P14416 (P14416 whole entry, looked up): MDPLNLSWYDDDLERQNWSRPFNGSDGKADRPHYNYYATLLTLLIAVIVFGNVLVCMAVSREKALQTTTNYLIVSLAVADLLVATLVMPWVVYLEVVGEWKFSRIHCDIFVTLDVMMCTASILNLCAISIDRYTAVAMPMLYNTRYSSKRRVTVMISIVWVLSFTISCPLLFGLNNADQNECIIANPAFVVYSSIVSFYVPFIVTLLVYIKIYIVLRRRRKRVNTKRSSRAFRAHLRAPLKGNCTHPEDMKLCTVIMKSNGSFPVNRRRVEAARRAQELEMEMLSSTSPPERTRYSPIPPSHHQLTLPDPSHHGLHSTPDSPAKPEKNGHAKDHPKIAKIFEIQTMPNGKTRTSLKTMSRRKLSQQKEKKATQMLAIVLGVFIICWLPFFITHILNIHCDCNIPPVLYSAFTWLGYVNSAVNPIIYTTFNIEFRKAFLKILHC
In short: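 Compounds are added to dye-loaded, induced HEK293 T-REx cells coupled to calcium release via D2; after a 3 min kinetic read an EC80 dopamine stimulus is given and fluorescence is recorded for 3 more min.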
In the case of `Clc1ccccc1-c1nc(Nc2ccccc2)nc2ccc(Br)cc12`, the inhibition is reported as 2.78%.
`Cc1ccc(NC(=O)N2CCC(n3c(C)nc4cccnc43)CC2)c(Cl)c1` showed an inhibition of -6.69%.
`CCOc1ccc(NC(=O)CSc2ncc3c(n2)-c2ccccc2N(C)S3(=O)=O)cc1` showed an inhibition of 3.59%.
Compound `COc1ccccc1NC(=O)Cn1c(=O)n(-c2cccc(C(C)=O)c2)c(=O)c2c3c(sc21)CN(C(C)=O)CC3` has an inhibition of 17.5%.
In the case of `O=C1CC(c2nc3ccccc3[nH]2)CN1c1cccc(C(F)(F)F)c1` (configuration not stated), the inhibition is reported as active: 32.9%.
Work on `CCN1CCN(C(=O)c2cnn(-c3ccc(F)cc3)c2-n2cccc2)CC1` yielded an inhibition of -20.9%.
`Cc1ccc(C2C=C(c3ccc(Cl)cc3)Nc3nc(NS(=O)(=O)c4ccccc4)nn32)cc1` (configuration not stated) was tested, and the inhibition was -6.06%.
`O=C(CCC1N=C2c3ccccc3N=C(SCC(=O)Nc3ccccc3F)N2C1=O)NCc1ccccc1` (configuration not stated) was tested, and the inhibition was 5.93%.
Compound `O=c1nc2sc3ccccc3n2c(=O)n1-c1ccc(Cl)c(Cl)c1` has an inhibition of 8.24%.
In the case of `O=C1c2[nH]nc(-c3ccccc3O)c2C(c2ccc(Cl)cc2)N1Cc1ccco1` (configuration not stated), the inhibition is reported as -0.915%.
In the case of `c1ccc2c(NC3CCCC3)nnc(NC3CCCC3)c2c1`, the inhibition is reported as active: 49.2%.
`CCOCCCNC(=O)NC(C)c1c(-n2cccc2)sc2c1CCN(CC)C2` (configuration not stated) was tested, and the inhibition was 6.33%.
For `COc1cc(C=O)cc(Br)c1OCC(N)=O`, the inhibition was active: 34.2%.
`O=C(CCc1nc(CN2CCN(S(=O)(=O)c3ccc(F)cc3)CC2)no1)N1CCCCC1` gave an inhibition of 0.471%.
Work on `CCc1ccc(-n2c(SCc3ccccc3F)nc3[nH]ncc3c2=O)cc1` yielded an inhibition of -16%.
For `O=C(c1ccc2c(c1)N(Cc1ccccc1F)C(=O)c1ccccc1S2(=O)=O)N1CCCCC1`, the inhibition was -11.6%.
`COc1cccc(NC(=O)CSC2=Nc3ccccc3N=C(c3ccc(F)cc3)C2)c1` showed an inhibition of 17%.
`CCc1ccc(C(=O)c2cn(CC(=O)NCCc3ccc(OC)c(OC)c3)c3nc(C)ccc3c2=O)cc1` was tested, and the inhibition was 2.33%.
For `CC(=O)N1CCN(c2ccccc2NC(=O)c2ccc3ccccc3c2)CC1`, the inhibition was active: 46.3%.
`COc1cccc(NC(=O)CSC2=Nc3ccccc3C3=NC(CC(=O)NCCc4ccccc4)C(=O)N23)c1` (configuration not stated) was tested, and the inhibition was 4.61%.
`Cc1ccc(CNC(=O)CCCCn2c(=O)c3ccccc3n(Cc3c(C)cc(C)cc3C)c2=O)cc1` was tested, and the inhibition was -15.8%.
Work on `CCOC(=O)c1ccccc1NC(=O)Cn1c(=O)n(Cc2nc(-c3ccccc3)no2)c(=O)c2ccccc21` yielded an inhibition of 5.03%.
For `COc1ccccc1N1CCN(C(=O)Cn2ncc3c([nH]c4ccccc43)c2=O)CC1`, the inhibition was 3.87%.
Work on `Cc1ccc(C)n1-c1c(C(=O)NCCC(C)C)sc2ncccc12` yielded an inhibition of 20.3%.
For `COCCc1nn2c(=O)cc(COC(=O)c3ccc(OC)c(OC)c3)nc2s1`, the inhibition was 6.49%.
`Cc1oc2ncn(CC(C)C)c(=O)c2c1C(=O)N1CCN(c2cccc(C(F)(F)F)c2)CC1` gave an inhibition of 1.86%.
`CCOC(=O)C1CCN(C(=O)Cn2c(=O)cc(C)c3c(C)nn(C)c32)CC1` was tested, and the inhibition was 6.45%.
`CCc1nn(-c2ccccc2)c2nc(-c3cccc(OC)c3)c3cc(OC)c(OC)cc3c12` gave an inhibition of 0.113%.
`COc1cc(-c2nc3nc[nH]n3c2Nc2ccc(C(C)C)cc2)ccc1O` was tested, and the inhibition was 11.5%.
With `CN(Cc1cccc(C(F)(F)F)c1)C(=O)C1CCC(=O)N(CC2CCCCC2)C1` (configuration not stated) the inhibition was active: 30.9%.
For `OC(COc1ccc(Br)cc1)CN1CCN(c2ccccc2)CC1` (configuration not stated), the inhibition was active: 81.2%.
For `CCOC(=O)c1c(N)n(-c2cccc(OC)c2)c2nc3ccccc3nc12`, the inhibition was 7.44%.
In the case of `O=[N+]([O-])c1cccc(NC(=S)NCCc2ccccc2)c1`, the inhibition is reported as active: 79.7%.
For `Cc1noc(C)c1C(=O)NCC1COc2ccccc2O1` (configuration not stated), the inhibition was active: 42%.
`COc1ccc(C(=O)NCCn2cc(SCC(=O)Nc3cccc(C)c3)c3ccccc32)cc1` gave an inhibition of 12.7%.
`CCOc1ccc(NC(=O)C(NS(=O)(=O)c2cccc3nsnc23)c2ccccc2)cc1` (configuration not stated) showed an inhibition of 9.18%.
`O=C(NC1CCCCC1)c1cc2c(Cl)nc3ccccc3c2s1` was tested, and the inhibition was 22.7%.
Work on `COc1ccccc1CNC(=O)C(=O)NCC(c1ccco1)S(=O)(=O)c1cccs1` (configuration not stated) yielded an inhibition of 13.1%.
Work on `Cc1cccc(-c2noc(CN(C(=O)COc3ccc(Br)cc3C)C(C)C)n2)c1` yielded an inhibition of -5.15%.
`OCCCc1nc2ccccc2n1CCCCOc1ccccc1` gave an inhibition of -1.55%.
Compound `CCn1c(=O)n(CC)c2cc(N3CCCCC3)c(NC(=O)Nc3cc(C)cc(C)c3)cc21` has an inhibition of 4.66%.
`CCn1cc(C(=O)N2CCN(c3cc(C)ccc3C)CC2)c(=O)c2cc(S(=O)(=O)N3CCOCC3)ccc21` was tested, and the inhibition was 10.8%.
Work on `COc1ccc(Cl)cc1NC(=O)Cn1c(=O)n(Cc2ccco2)c(=O)c2cccnc21` yielded an inhibition of -3.73%.
Work on `CCN(Cc1ccccc1)C(=O)c1nc(-c2cccc(F)c2)n2c1CCCCC2` yielded an inhibition of 13.4%.
In the case of `Cc1cc(C)c(CSc2nnc(C)n3c2cc2occc23)c(C)c1`, the inhibition is reported as -3.16%.
Compound `COCCCNC(=O)C1CCCN(C(=O)c2cnn(-c3ccc(F)cc3)c2-n2cccc2)C1` (configuration not stated) has an inhibition of -0.918%.
Compound `Cc1ccn2c(Nc3ccccc3C)c(-c3ccccn3)nc2c1` has an inhibition of -12.4%.
`Cc1ccc(SCc2nc(-c3ccc(C(=O)NCc4ccc(Cl)cc4)cc3)oc2C)cc1` showed an inhibition of 8.24%.
`COc1cc(C(=O)Nc2nc3nc(-c4ccccc4)cc(=O)n3[nH]2)cc(OC)c1OC` gave an inhibition of -1.91%.
For `Cc1ccn2c(=O)cc(CSc3nnc(NC(=O)c4ccccc4Cl)s3)nc2c1`, the inhibition was -0.155%.
In the case of `COc1cc(NC(=O)c2noc3c2CSc2ccccc2-3)cc(OC)c1OC`, the inhibition is reported as 9.17%.
For `O=C(NC1CCCCC1)c1cc(Nc2cccc(C(F)(F)F)c2)nc2ccccc12`, the inhibition was -4.42%.
With `CCOC(=O)c1ccccc1NC(=O)CCOc1ccccc1` the inhibition was -2.42%.
Compound `Cc1cccc(N2CCN(C(=O)NCc3noc4ccccc34)CC2)c1C` has an inhibition of -10%.
In the case of `COc1ccc(CNC(=O)c2cc3c(=O)[nH]c4ccccc4c3s2)cc1`, the inhibition is reported as -9.86%.
For `CCc1ccccc1NC(=O)c1nnn(-c2ccc(F)cc2)c1C`, the inhibition was -1.52%.
In the case of `COc1cc2ccccc2cc1C(=O)Nc1ccc2oc(-c3ccc(F)cc3)nc2c1`, the inhibition is reported as -2.43%.
For `CC1CCN(S(=O)(=O)c2ccc3c(c2)oc(=O)n3CC(=O)NCc2ccc(F)cc2)CC1`, the inhibition was 1.63%.
For `Cc1cc(C)cc(-n2c(SCC(=O)N3CCCCC3)nc3c([nH]c4ccccc43)c2=O)c1`, the inhibition was 8.66%.
Compound `CCOc1ccc(NC(=O)Cn2c(=O)n(Cc3ccco3)c(=O)c3oc4ccccc4c32)cc1` has an inhibition of 3.39%.
Work on `O=C(Nc1ccc(Br)c2cccnc12)c1cccc2ccccc12` yielded an inhibition of -2.22%.
Work on `Cc1cc(C)cc(NC(=O)CCC(=O)N2Cc3ccccc3Oc3ncccc32)c1` yielded an inhibition of 1.84%.
`Cc1ccc(CCNC(=O)c2cc3sccc3n2Cc2ccc(C)cc2)cc1` gave an inhibition of 10.3%.
Work on `Cc1c(Cl)cccc1-c1ccc(CNc2ccc3[nH]c(=O)[nH]c3c2)o1` yielded an inhibition of 8.6%.
In the case of `Cc1c(Cl)ccc2sc(NC(=O)c3ccc(S(=O)(=O)N4CCCc5ccccc54)cc3)nc12`, the inhibition is reported as 17%.
In the case of `CCCc1cnc2c(c1SCC(=O)N(C)c1ccccc1)c(=O)n(C)c(=O)n2C`, the inhibition is reported as -14.8%.
`COc1cccc(CC(=O)Nc2sc3c(c2C(N)=O)CCCC3)c1` was tested, and the inhibition was active: 39.3%.
With `COc1ccc(-n2nc3ccc(NC(=O)c4ccc(-c5cc(Cl)ccc5Cl)o4)cc3n2)cc1` the inhibition was -3.21%.
`Cc1c(NC(=O)c2cccnc2Cl)c(=O)n(-c2ccccc2)n1C` was tested, and the inhibition was active: 35.9%.
`Clc1cccc(N2CCN(c3nc4ccccc4n4cnnc34)CC2)c1` gave an inhibition of -2.89%.
`C=CCc1ccccc1OCCSc1nc(-c2ccc(C(C)(C)C)cc2)nc2cc(=O)[nH]n12` showed an inhibition of -0.887%.
`COc1ccc(NC(=O)CCc2nnc3n(C)c(=O)c4sccc4n23)cc1` was tested, and the inhibition was -14.4%.
For `COc1ccc(-n2ccnc(NCc3ccc(Cl)cc3)c2=O)cc1`, the inhibition was 4.19%.
For `Cc1ccccc1-c1nc(C#N)c(N2CCC(C)CC2)o1`, the inhibition was active: 30.7%.
Compound `CC1CN(C(=O)Nc2ccc(C(=O)NCCc3ccccc3)cc2)c2ccccc2S1` (configuration not stated) has an inhibition of 6.32%.
In the case of `CCOc1cc(-c2ccc(OC(=O)c3ccccc3F)cc2)cc(=O)c2c(C)oc(C)c12`, the inhibition is reported as -4.21%.
`CCN(Cc1ccccc1)C(=O)c1c(C)oc2ncn(C)c(=O)c12` showed an inhibition of 4.92%.
`CCOc1ccc(C(=O)Nc2cc(-c3nc4ccccc4o3)ccc2C)cc1Cl` was tested, and the inhibition was 0.779%.
In the case of `Cc1cc(C)nc(NS(=O)(=O)c2ccc(NC(=O)COc3ccc(Cl)cc3C)cc2)n1`, the inhibition is reported as -10.4%.
In the case of `O=C(CSc1nccn1Cc1ccccc1)NCc1ccc(F)cc1`, the inhibition is reported as -1.74%.
In the case of `O=C(NCc1ccc(F)cc1)c1ccc(CSCc2cccc(Cl)c2)o1`, the inhibition is reported as -19.3%.
`COCCNC(=O)Cc1ccc(NC(=O)N2CCCCc3ccccc32)cc1` showed an inhibition of 19.4%.
`COC(=O)c1scc(-c2ccccc2)c1S(=O)(=O)Nc1ccccc1` was tested, and the inhibition was -27.4%.
In the case of `COc1ccc(-n2c(/C=C/c3ccccc3F)nc3cc(OC)c(OC)cc3c2=O)cc1Cl`, the inhibition is reported as 9.22%.
`COCCNC(=O)c1cnn(-c2ccc(C)cc2C)c1C1CCN(C(=O)OC(C)(C)C)CC1` gave an inhibition of -5.59%.
In the case of `Cn1cc(CN(C(=O)Nc2ccc(Cl)c(Cl)c2)C2CCCCC2)c2ccccc21`, the inhibition is reported as 4.68%.
`Cc1ccc(NC(=O)CSc2ncc3c(n2)-c2ccccc2N(Cc2cccc(F)c2)S3(=O)=O)cc1F` showed an inhibition of 2.33%.
Compound `CCN(CC)C(=O)C1CCN(S(=O)(=O)c2ccc3c(c2)CCCN3C(C)=O)CC1` has an inhibition of 7.04%.
`Cc1ccc(-c2cc(C(F)(F)F)n3nc(C(=O)Nc4ccc(Cl)cc4Cl)cc3n2)cc1` showed an inhibition of -14.2%.
`Cc1ccc(N2CC(NC(=O)/C=C\c3ccc4c(c3)OCO4)CC2=O)cc1C` (configuration not stated) was tested, and the inhibition was 8.05%.
`O=C1c2ccccc2C(=O)C1(c1ccccc1)N1CCN(c2cccc(Cl)c2)CC1` gave an inhibition of -10.4%.
For `COC(=O)c1sccc1NC(=O)c1ccc(C)s1`, the inhibition was active: 32.8%.
`Cc1ccc2nc(-c3ccsc3)c(Nc3ccccc3C)n2c1` was tested, and the inhibition was 2.33%.
Work on `COc1ccccc1/C=C/c1nc(C#N)c(N2CCCCC2)o1` yielded an inhibition of 2.18%.
In the case of `Cc1nc2nncn2c(N2CCN(c3ccccc3)CC2)c1C`, the inhibition is reported as -2.05%.
For `Cc1ccc(NC(=O)CC(C)S(=O)(=O)c2ccc3c(c2)NC(=O)CO3)c(C)c1` (configuration not stated), the inhibition was -4.58%.
`Cc1c(C(=O)Nc2cccc(-c3nnc4n3CCCCC4)c2)oc2ccccc12` was tested, and the inhibition was active: 60%.

Reference: PubChem BioAssay AID485344 (National Center for Advancing Translational Sciences (NCATS), 2010)
Further: 0% is about no effect.
